Results: PubChem BioAssay AID488969 (Vanderbilt High Throughput Screening Facility, 2010)
Whole data set: some 110,000 compounds, median “z-score” near -0.1, cut for the highest 2% near 2. Some of the results follow. Calls of active or inactive are those of the source.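 The calls were made as follows: active = z-score in the third read window above 3 or below -3; inactive = the rest.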

The molecules below were run against Metabotropic glutamate receptor 8 (Rattus norvegicus) (UniProt P70579) (assay: mGluR8 Gi/Go-coupled signaling modulation – cell-based, rat, thallium flux, HTS, primary screen (AID 488969)). Details: HEK293 rat mGluR8, GIRK (G protein-gated inwardly rectifying potassium channel) thallium flux, FluoZin2; at 10 µM; stronger effect = higher value; submaximal glutamate (EC20) added with thallium.
UniProt P70579, sequence (P70579 whole entry, looked up): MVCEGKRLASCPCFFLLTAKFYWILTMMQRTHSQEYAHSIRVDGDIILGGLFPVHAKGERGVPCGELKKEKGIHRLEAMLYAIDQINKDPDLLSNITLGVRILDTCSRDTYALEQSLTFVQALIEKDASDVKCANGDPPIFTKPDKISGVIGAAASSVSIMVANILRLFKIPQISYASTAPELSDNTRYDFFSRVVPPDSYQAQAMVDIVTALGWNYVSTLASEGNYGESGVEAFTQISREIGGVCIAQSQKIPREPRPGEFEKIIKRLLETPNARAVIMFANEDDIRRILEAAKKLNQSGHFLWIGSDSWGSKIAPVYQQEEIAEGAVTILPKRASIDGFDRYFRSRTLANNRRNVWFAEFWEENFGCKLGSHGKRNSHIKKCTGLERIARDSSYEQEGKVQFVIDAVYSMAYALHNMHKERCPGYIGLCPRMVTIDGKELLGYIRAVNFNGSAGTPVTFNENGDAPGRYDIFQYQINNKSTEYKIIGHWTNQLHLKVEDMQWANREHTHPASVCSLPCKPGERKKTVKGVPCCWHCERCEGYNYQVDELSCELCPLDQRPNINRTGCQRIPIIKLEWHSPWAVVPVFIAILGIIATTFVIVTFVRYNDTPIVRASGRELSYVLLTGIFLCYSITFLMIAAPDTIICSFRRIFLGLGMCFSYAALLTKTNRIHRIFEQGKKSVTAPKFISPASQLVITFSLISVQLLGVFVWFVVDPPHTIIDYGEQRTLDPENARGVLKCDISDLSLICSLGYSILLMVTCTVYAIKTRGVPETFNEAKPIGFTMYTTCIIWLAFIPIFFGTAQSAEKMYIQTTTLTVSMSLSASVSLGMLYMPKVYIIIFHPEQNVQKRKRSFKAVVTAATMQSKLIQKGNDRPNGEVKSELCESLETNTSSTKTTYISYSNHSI
`C=CCn1cc(C(=O)NCC2CCCO2)c(=O)c2cc(S(=O)(=O)N3CCCCCC3)ccc21` (stereo not drawn) gave a z-score of -0.544. Molecule `COc1ccc(-n2cnnc2SCC(=O)NCc2cccs2)cc1` has a z-score of -0.126. For `COc1ccc(C2C(C(=O)C(C)(C)C)=C(O)C(=O)N2Cc2ccccc2)cc1` (stereo not drawn), the z-score was -0.0256. In the case of `Cc1ccc(-c2nc(CS(=O)CC(=O)NC3CCC(C)CC3)c(C)o2)cc1` (stereo not drawn), the z-score is reported as -0.41. `COc1ccc(C2(C(=O)NCc3ccco3)CCCC2)cc1OC` gave a z-score of 0.0332. For `CCCCN(CCCC)CCCNC(=O)C12CN(Cc3ccccc3)CC1C(c1cccc([N+](=O)[O-])c1)=NO2` (stereo not drawn), the z-score was 1.81. Work on `CC/C(CC(C)(C)c1ccccc1)=N\O` yielded a z-score of 0.387. In the case of `CC(C)(C)c1ccc(SCC(N)=O)cc1`, the z-score is reported as active: -4.39. With `COC(=O)CCCNS(=O)(=O)c1ccc2ccccc2c1` the z-score was 0.264. Molecule `Cc1nc(NC(=S)NC(=O)COc2ccc(Cl)cc2)ccc1Br` has a z-score of 0.641. For `COc1c(F)c(F)c(C(=O)O)c(Nc2ccccc2)c1F`, the z-score was -0.109. `CC(C)(C)c1ccc(C(=O)CSc2ncn[nH]2)cc1` showed a z-score of 0.169. Work on `Cc1nn2c(Nc3ccc(F)cc3)c3c(nc2c1-c1ccccc1)CCC3` yielded a z-score of 0.0107. `O=C(O)c1cccc(NS(=O)(=O)c2cccc3cccnc23)c1` gave a z-score of -0.0996. With `CCOc1ccc(-c2nnc3ccc(SCC(=O)Nc4nc5ccc(C)cc5s4)nn23)cc1` the z-score was -0.458. Work on `C=CCn1c(SC2CCOC2=O)nc2sc(C)c(C)c2c1=O` (stereo not drawn) yielded a z-score of -0.995. `CC(NS(=O)(=O)c1ccc(Cl)cc1)C(=O)NCc1ccco1` (stereo not drawn) gave a z-score of 0.0263. In the case of `O=C(CC(NC(=O)C(F)(F)F)c1ccccc1)Nc1nnc(CCc2ccccc2)s1` (stereo not drawn), the z-score is reported as 0.45. With `O=C(Nc1ccc2c(c1)OCCO2)C1CCCN(S(=O)(=O)c2cccc3nsnc23)C1` (stereo not drawn) the z-score was 0.545. `CC(=O)N/C(=C\c1ccccc1)C(=O)OCC(=O)N(C)C1CCCCC1` gave a z-score of -0.162. `O=C(Nc1ncc2c(n1)-c1ccccc1CC2)c1ccc(F)cc1` gave a z-score of -0.425. For `COc1ccccc1/C=C1\S/C(=N/NC(=O)c2cccc(Br)c2)NC1=O`, the z-score was -0.812. Molecule `CC1Cc2ccccc2N1C(=O)CSc1nnc2c(n1)[nH]c1ccc(F)cc12` (stereo not drawn) has a z-score of -0.327. For `O=S(=O)(NCc1cccnc1)c1ccccc1`, the z-score was -0.00631. In the case of `CCc1ccc(C(=O)CN2C(=O)NC(C)(CCc3ccccc3)C2=O)cc1` (stereo not drawn), the z-score is reported as -0.208. For `Cc1nn(Cc2ccccc2)c2c1C(c1ccccc1)C(C#N)=C(N)O2` (stereo not drawn), the z-score was -0.684. With `O=C(/C=C/c1ccccc1)c1cc(Br)ccc(=O)c1O` the z-score was active: 14. `COCCNc1nnc(SC(C)C(=O)Nc2ccc(-c3nc4ccc(C)cc4s3)cc2)s1` (stereo not drawn) gave a z-score of -0.474. With `CCCCN(CCCC)C(=S)NC(=O)c1ccccc1Cl` the z-score was -0.755. `CCOC(=O)C(NC(C)=O)C(=O)O` (stereo not drawn) showed a z-score of -0.0696. In the case of `COc1ccc(C(=O)C(CCC(CNC(C)(C)C)C(=O)c2ccc(OC)cc2)CNC(C)(C)C)cc1` (stereo not drawn), the z-score is reported as 0.539. In the case of `Cc1ccc(S(=O)(=O)n2ccc(-c3cccc(OCc4c(F)cccc4Cl)c3)n2)cc1`, the z-score is reported as -0.115. With `c1ccc(CCNc2ncnc3c2cnn3-c2ccccc2)cc1` the z-score was -1.25. With `COc1ccc(CCN2CC34C=CC(O3)C(C(=O)NCc3ccccc3Cl)C4C2=O)cc1OC` (stereo not drawn) the z-score was 0.725. Work on `CCCNc1nc2c(c(=O)[nH]c(=O)n2C)n1Cc1ccc(F)cc1` yielded a z-score of -0.0935. Molecule `COC(=O)c1ccc(/C=N/NC(=O)c2cccc(F)c2)cc1` has a z-score of -0.403. `CC(O)(CS(=O)(=O)Cc1ccccc1)C(=O)Nc1cccc(C(F)(F)F)c1` (stereo not drawn) gave a z-score of -0.0049. In the case of `Cc1ccc(S(=O)(=O)N2CCC(C(=O)N[C@H](C(=O)NCC3CCCO3)C(C)C)CC2)cc1` (stereo partly drawn), the z-score is reported as -0.153. For `CC(Sc1nc(-c2ccccc2)cc(C(F)(F)F)n1)C(=O)Nc1sc2c(c1C(N)=O)CCC2` (stereo not drawn), the z-score was -0.359. `COC(=O)c1ccc2nc(NC(=O)COC(=O)CSc3nc(C)cc(C)n3)sc2c1` gave a z-score of -0.153. For `Cc1nnc(NC(=O)c2ccccc2C(=O)O)s1`, the z-score was -0.105. `CCC(C)NCCCOc1cc(Cl)ccc1Cl` (stereo not drawn) was tested, and the z-score was 0.511. `Cc1ccc(C)c(-c2nn(-c3cc(N4CCN(CCO)CC4)ccc3[N+](=O)[O-])c(=O)c3ccccc23)c1` gave a z-score of -0.175. `CC1CC2(CC(C)(C(=O)CSc3nc4ccccc4s3)OC2=O)C(=O)O1` (stereo not drawn) showed a z-score of 0.537. Work on `O=c1c2ccccc2nc(N/N=C/c2c(O)ccc3ccccc23)n1O` yielded a z-score of 0.298. With `COc1cc(C2C3C(=O)N(c4ccccc4)C(=O)C3ON2c2ccccc2)cc(OC)c1OC` (stereo not drawn) the z-score was -0.0506. Molecule `CC(=O)c1ccc(N(C(=O)Cn2nnc3ccccc32)C(C(=O)NCc2ccccc2)c2ccccn2)cc1` (stereo not drawn) has a z-score of 0.131. For `Cc1ccc(S(=O)(=O)N(C)c2ccc(NS(C)(=O)=O)cc2)cc1`, the z-score was -0.379. In the case of `Cc1cc(Cl)cc(C)c1OCCCCN1CCOCC1`, the z-score is reported as 0.224. For `C=CCNC(=O)COc1cc(C)ccc1C`, the z-score was -0.198. For `CN(C)S(=O)(=O)N1CCN(C(=O)N(c2ccccc2)c2ccccc2)CC1`, the z-score was -0.395. Molecule `O=C(CC(=O)NC1CCCCC1)N/N=C/c1cccc2ccccc12` has a z-score of -0.294. For `NNC(=O)CNC(=O)c1ccccc1F`, the z-score was -0.108. With `CCOC(=O)C1=C(C)N(C)C(C)=C(C(=O)OCC)C1c1ccccn1` the z-score was 0.692. Work on `Cc1cccc(C)c1NC(=O)C(NC=O)c1ccc(Cl)cc1` (stereo not drawn) yielded a z-score of -0.0871. `Cc1ccc(S(=O)(=O)N(C)C)cc1-n1c(SCC(=O)Nc2ccccc2)nc2ccccc2c1=O` gave a z-score of 0.0533. With `COC(=O)c1ccc(C2NC(=S)N(c3ccccc3)C(C)=C2C(=O)Nc2ccccc2OC)cc1` (stereo not drawn) the z-score was -0.483. For `CCn1cc(C(=O)NCc2ccco2)c(=O)c2cc(S(=O)(=O)N3CC(C)CC(C)C3)ccc21` (stereo not drawn), the z-score was -0.0472. `COc1cccc(-c2nc(CS(=O)(=O)CC(=O)NC3CCCc4ccccc43)c(C)o2)c1` (stereo not drawn) showed a z-score of 0.0233. For `COCC(=O)NC1CCN(CC(=O)Nc2ccc(OC)cc2[N+](=O)[O-])CC1`, the z-score was -0.121. In the case of `O=C(N/N=C/c1ccco1)C1CC1`, the z-score is reported as 0.84. Molecule `Cc1cc(C)c2nc3s/c(=C/c4ccccc4)c(=O)n3c2c1` has a z-score of -0.0939. Work on `O=C1CCCC2=C1C(O)(C(F)(F)F)C(=O)N2Cc1ccccc1` (stereo not drawn) yielded a z-score of 0.265. Molecule `CCC(C)(C(=O)NC1CCCC1)N(Cc1cccs1)C(C)=O` (stereo not drawn) has a z-score of -0.228. In the case of `COc1ccc(CCNCc2csc3nc4ccccc4n23)cc1OC`, the z-score is reported as -0.105. With `CC(C)(C)c1nnc(N/N=C/c2ccccc2)n(N)c1=O` the z-score was 2.74. For `C=CCn1c(C)cc(C(=O)CSc2nnc(Cc3ccccc3)o2)c1C`, the z-score was -0.617. For `Cn1c(Cl)c(C(=O)Nc2ccccc2)c2ccccc21`, the z-score was 0.181. `Cc1ccccc1N(CC(=O)N/N=C/c1ccc(F)cc1)C(=O)c1ccccc1` showed a z-score of -0.215. `Cc1ccc(Sc2ccc(NC(=O)CCl)cc2)c(C)c1` gave a z-score of 0.511. Work on `CCc1ccc(NC(=O)N(Cc2cccnc2)Cc2ccco2)cc1` yielded a z-score of -0.111. With `O=C(Nc1nc2c(s1)CCCC2)c1cc2n(n1)C(C(F)(F)F)CC(C1CC1)N2` (stereo not drawn) the z-score was -0.188. For `O=C(Nc1nnc(-c2ccccc2Cl)o1)c1ccc(S(=O)(=O)N2CCCCCC2)cc1`, the z-score was active: 13.1. Work on `Cc1ccc(C(=O)COc2ccccc2N2C(=O)c3ccccc3C2=O)cc1` yielded a z-score of 0.000589. In the case of `CCOC(=O)CSc1nc2ccccc2c(=O)n1CCCCCC(=O)NCc1ccco1`, the z-score is reported as -0.403. For `CCCN(CCC)C(=S)NC(=O)c1ccc(Cl)cc1Cl`, the z-score was active: 14.4. `CCCSc1nc2c(cnn2-c2ccc(F)cc2)c(=O)[nH]1` showed a z-score of -1.82. For `O=C(CSc1ccc2c(c1)OCCO2)Nc1ccc(Br)cc1`, the z-score was -0.57. Molecule `Cc1ccc(C(C(=O)NC2CCCC2)N(C(=O)c2csnn2)C2CCCC2)o1` (stereo not drawn) has a z-score of -0.0869. In the case of `CC(C)NC(=S)N1CCN(S(=O)(=O)c2cccc(C(F)(F)F)c2)CC1`, the z-score is reported as -0.0156. Work on `NC(=O)c1ccc[n+](CC(=O)OCCC23CC4CC(CC(C4)C2)C3)c1` yielded a z-score of 0.101. Molecule `CCN1CCN(c2nc(N)c([N+](=O)[O-])c(Nc3ccc(C)cc3)n2)CC1` has a z-score of 0.102. Molecule `CCCCCC(=O)Nc1ccc(N2CCN(C(=O)c3ccccc3)CC2)cc1` has a z-score of -0.421. Molecule `Clc1ccc(OCCn2ccnc2)c2ccccc12` has a z-score of 0.847. `Nc1nnnn1/N=C\c1ccc(Cl)c([N+](=O)[O-])c1` was tested, and the z-score was -0.138. Molecule `Cc1n(CC(O)COCc2ccccc2)c2ccccc2[n+]1C` (stereo not drawn) has a z-score of -0.0583. For `COc1cccc(CNCCc2c[nH]c3ccccc23)c1OCc1ccc(F)cc1`, the z-score was 2.04. In the case of `CC(=O)Nc1c2c(nn1-c1cccc(Cl)c1)CS(=O)C2` (stereo not drawn), the z-score is reported as -0.47. Work on `COc1ccc(N2C(N)=NC(N)=NC23CCCC3)cc1` yielded a z-score of 0.43. Molecule `OC(COCC1COc2ccccc2O1)CN1CCN(c2ccc(F)cc2)CC1` (stereo not drawn) has a z-score of -0.297. For `O=C(Cn1cnc2ccccc2c1=O)Nc1ccc2c(c1)OCCO2`, the z-score was 0.113. For `COc1cccc(-n2c(CNc3ccc(F)cc3)nnc2SCC(N)=O)c1`, the z-score was 0.531. Work on `CCc1ccc(-c2csc(NC(=O)COC(=O)CCc3nc4ccccc4s3)n2)cc1` yielded a z-score of -0.0493. Work on `Cc1cc(C)c2c(n1)nn1c(NCCCN(C)C)cc(C)nc21` yielded a z-score of -0.235. In the case of `N#Cc1c(C(F)(F)F)cc(-c2ccccc2)nc1SCCN1CCOCC1`, the z-score is reported as -0.199. For `Cc1ccc(S(=O)(=O)N2CCN(C)CC2)cc1[N+](=O)[O-]`, the z-score was -0.0804. For `COc1ccc(-n2c(=S)[nH]c3sc4c(c3c2=O)CCc2ccccc2-4)cc1`, the z-score was 0.114. With `Cc1cccc(CSc2nnc(-c3cccs3)n2Cc2ccco2)c1` the z-score was -0.616. `O=c1cc(-c2ccco2)oc2c1ccc1ccccc12` gave a z-score of -0.164. With `COc1cc(CCC(=O)Oc2ccc(C(C)=O)cc2)cc(OC)c1OC` the z-score was -0.72. `COc1ccc(-c2noc(CSc3ccccc3)n2)cc1OC` showed a z-score of -0.00887. With `CC(C)C(=O)NS(=O)(=O)c1ccc(N)cc1` the z-score was -0.197. `CC1CN(C(=O)c2ccncc2)CC(C)O1` (stereo not drawn) was tested, and the z-score was 0.0444. `COc1ccc(-c2nc3cc(NC(=S)NC(=O)Cc4ccccc4)ccc3o2)cc1` showed a z-score of 0.594. `O=C(Nc1ccc(F)cc1)NC1(C(=O)NCc2ccc3c(c2)OCO3)CCCCC1` gave a z-score of -0.542. `COC(=O)COc1ccc(/C=C2/SC(=O)N(CC(=O)N3CCCC3)C2=O)cc1Br` showed a z-score of -0.164. For `O=C(O)c1ccc(CNCc2ccccc2Cl)cc1`, the z-score was -0.244. In the case of `COc1ccc(-c2nc(CSCC(=O)N3CCc4ccccc43)c(C)o2)cc1OC`, the z-score is reported as -0.471.
